In US12122821B2, “Regulation of glucose metabolism using anti-CGRP antibodies” (H. LUNDBECK A/S, priority 2013, dated 2024):
“Also recorded” adds a separate entry of the source.

Key:
Normal rats [1] = experiment: Hyperinsulinemic-euglycemic clamp, whole body glucose fluxes in normal rats (Example 1); type: in vivo, rat; details: Ab14 100 mg/kg i.v., vs vehicle
Protocol: To assess the effect on whole body insulin sensitivity, a clamp procedure was performed using 0.3 U/kg/h insulin and ^3H-glucose. Rats were fasted for 6 hours before 180 minutes of perfusion. Steady state was reached after 140 minutes of infusion and the means of glucose infusion rate (GIR), whole body glucose turn over (GTO), hepatic glucose production (HGP), glycolysis, and glycogen synthesis were calculated from 140 min. to 180 min. A bolus of 14-C-2-deoxyglucose was administered 1 hour before the end of the clamp to measure tissue specific glucose utilization.
The hyperinsulinemic-euglycemic clamp was performed using ^3H-glucose as a tracer and 0.3 U/kg/h insulin infusion from 02:00 pm (T0) to 05:00 pm (T+3 h). A glucose solution was infused in parallel and the infusion rate was adjusted to reach the steady state (˜100+/−10 mg/dL). Blood glucose was measured from the tip of the tail using glucometers every 10 minutes. Blood was collected (10 μL) from the tip of the tail during the last hour (steady state) and the following parameters were assessed: Glucose infusion rate; Whole body glucose utilization rate; Hepatic glucose production rate; Whole body glycogen and glycolytic rates.
Whole body Glucose fluxes.

[2] = test system: Zucker diabetic fatty (ZDF) rat; details: ZDF rats
Protocol: Each pancreas was divided into 2 parts (longitudinal cut). One piece was fixed in 10% formalin solution for histopathological processing. The other piece of pancreas was flash frozen and kept at −80° C. for determination of insulin and proinsulin levels.
Each pancreas sample was fixed in 4% formalin during 24-48 hours maximum; the volume of formalin was 5-10 times higher than the sample volume to assure appropriate fixation. After 48 h, the samples were placed in 70% ethanol.

Normal rats [3] = experiment: Blood glucose, plasma insulin and HOMA-IR before clamp in normal rats (Example 1); type: in vivo, rat; details: 42 h after Ab14 100 mg/kg i.v., 18 h after metformin 500 mg/kg p.o., vs vehicle
Protocol: The antibody used in this example consisted of the light and heavy polypeptide chains of SEQ ID NOs 132 and 134.
Blood glucose (BG) was measured between 07:30 and 08:00 (just before the light off) am from the tip of the tail with glucometer and a blood collection (on EDTA) was performed just after to measure plasma insulin. The table below describes the conditions:
Plasma samples were kept at −80° C. until insulin measurement (using ELISA method).
Vehicle and Ab14 were administered by i.v. route 48 h before the T0 of clamp procedure (at 02:00 pm two days before the clamp).
The rats were fasted 6 hours before the start of the clamp (at ˜8 h, just after the blood collection).

[4] = test system: Zucker diabetic fatty (ZDF) rat; experiment: Oral glucose tolerance test on day 26 in ZDF rats (Example 3); type: in vivo; details: for decrease of insulin secretion (relative to T-60) at T30 / reduction in blood glucose AUC (OGTT): vs vehicle ZDF; for plasma insulin and C-peptide levels 15 and 30 minutes after the glucose load: vs vehicle; for reduction in blood glucose AUC (OGTT): non significant
Protocol: The oral glucose tolerance test (OGTT) was performed as follows. On day 25, rats were fasted at ˜6:00 pm and an oral glucose tolerance test was performed the day after (on day 26). At ˜8:00 am (T-60) a blood collection (110 μL, EDTA) was performed for biochemical parameters measurements. One hour after (˜09:00 am), an oral glucose bolus (1.5 g/kg) was administered (T0). Blood glucose was measured (glucometer or colorimetric method in case of high glycaemia) on T-60, T0, T15, T30, T60, T90, T120, and T180 minutes. Area under the curve (AUC) was calculated based on the blood glucose values measured at T0. Plasma insulin and C-peptide were measured (ELISA method) on T-60, T15 (·40 μL of blood, EDTA), and T30 minutes (·40 μL of blood, EDTA).

[5] = Ab14 60 mg/kg/wk., Met. 200 mg/kg/day
[6] = day 26, AB14 20 mg/kg alone or + metformin
[7] = day 26, AB14 60 mg/kg alone or + metformin

B1: Ab14: humanized anti-CGRP antibody consisting of the light and heavy polypeptide chains of SEQ ID NOs 132 and 134 (protein)
light: QVLTQSPSSLSASVGDRVTINCQASQNVYNNNYLAWYQQKPGKVPKQLIYSTSTLASGVPSRFSGSGSGTDFTLTISSLQPEDVATYYCLGSYDCSRGDCFVFGGGTKVEIKRTVAAPSVFIFPPSDEQLKSGTASVVCLLNNFYPREAKVQWKVDNALQSGNSQESVTEQDSKDSTYSLSSTLTLSKADYEKHKVYACEVTHQGLSSPVTKSFNRGEC
heavy: EVQLVESGGGLVQPGGSLRLSCAVSGIGLSSYYMQWVRQAPGKGLEWVGVIGSDGKTYYATWAKGRFTISRDNSKTTVYLQMNSLRAEDTAVYFCTRGDIWGQGTLVTVSSASTKGPSVFPLAPSSKSTSGGTAALGCLVKDYFPEPVTVSWNSGALTSGVHTFPAVLQSSGLYSLSSVVTVPSSSLGTQTYICNVNHKPSNTKVDARV[here human IgG1 Fc with changes without letters]
Normal rats [1]; metformin 500 mg/kg p.o.
  GIR evolution during clamp: trend to increase
Normal rats [1]; clamp 0.3 U/kg/h insulin, 140-180 min, metformin 500 mg/kg p.o.
  increase of glycolysis rate: did not affect
Normal rats [1]; clamp 0.3 U/kg/h insulin, 140-180 min, NS
  increase of glycogen synthesis rate: 23%
[2]; AB14 60 mg/kg, metformin, or combined, vs vehicle ZDF
  vacuolization and islet fibrosis severity: trend towards a decrease
[2]; [5]
  Arteries, medial/intimal hypertrophy, severity 0, incidence: 6
  Arteries, medial/intimal hypertrophy, severity 1, incidence: 3
  Brown pigment-laden, severity 1, incidence: 7
  Brown pigment-laden, severity 2, incidence: 2
  Eosinophilic granulocyte infiltration, severity 0, incidence: 8
  Eosinophilic granulocyte infiltration, severity 1, incidence: 1
  Exocrine cell vacuolation, severity 0, incidence: 8
  Exocrine cell vacuolation, severity 1, incidence: 1
  Fat tissue: Fat tissue necrosis, group mean score: 0
  Interstitial fibroplasia/fibrosis, severity 0, incidence: 8
  Interstitial fibroplasia/fibrosis, severity 1, incidence: 1
  Interstitial hemorrhage, severity 0, incidence: 3
  Interstitial hemorrhage, severity 1, incidence: 4
  Interstitial hemorrhage, severity 2, incidence: 2
  Islet Cell Vacuolation, severity 1, incidence: 6
  Islet Cell Vacuolation, severity 2, incidence: 3
  Islet Fibrosis, severity 1, incidence: 4
  Islet Fibrosis, severity 2, incidence: 3
  Islet Fibrosis, severity 3, incidence: 2
  Islet cell anisocytosis/anisokaryosis, severity 0, incidence: 5
  Islet cell anisocytosis/anisokaryosis, severity 1, incidence: 4
  Islet cell mitosis, severity 0, incidence: 7
  Islet cell mitosis, severity 1, incidence: 2
  Islet cell single cell necrosis, severity 0, incidence: 5
  Islet cell single cell necrosis, severity 1, incidence: 4
  Islet granulocytic infiltration, severity 0, incidence: 5
  Islet granulocytic infiltration, severity 1, incidence: 4
  Islet hemorrhage, severity 0, incidence: 7
  Islet hemorrhage, severity 1, incidence: 2
  Large/Giant Islets, severity 1, incidence: 4
  Large/Giant Islets, severity 2, incidence: 3
  Large/Giant Islets, severity 3, incidence: 2
  Lymph node: Brown pigment-laden macrophages, group mean score: 0
  Lymph node: Eosinophilic granulocyte infiltration, group mean score: 0.5
  Lymph node: Erythrophagocytosis—sinusoidal, group mean score: 1
  Lymph node: Pink protein rich sinusoidal lymph, group mean score: 0
  Lymph node: Sinusoidal hemorrhage, group mean score: 0
  Lymph node: Sinusoidal mast cells, group mean score: 0
  Mononuclear cell infiltration, severity 1, incidence: 9
  Pancreas: Arteries, medial/intimal hypertrophy, group mean score: 0
  Pancreas: Brown pigment-laden macrophages, group mean score: 1
  Pancreas: Eosinophilic granulocyte infiltration, group mean score: 0
  Pancreas: Exocrine cell vacuolation, group mean score: 0
  Pancreas: Interstitial fibroplasia/fibrosis, group mean score: 0
  Pancreas: Interstitial hemorrhage, group mean score: 1
  Pancreas: Islet cell anisocytosis/anisokaryosis, group mean score: 0.5
  Pancreas: Islet cell mitosis, group mean score: 0
  Pancreas: Islet cell single cell necrosis, group mean score: 0.5
  Pancreas: Islet cell vacuolation, group mean score: 1
  Pancreas: Islet fibrosis, group mean score: 2
  Pancreas: Islet granulocytic infiltration, group mean score: 0
  Pancreas: Islet hemorrhage, group mean score: 0
  Pancreas: Large/giant islet(s), group mean score: 1.5
  Pancreas: Mononuclear cell infiltration, group mean score: 1
  Pancreas: Pancreatic ductule hyperplasia, group mean score: 0
  Pancreatic ductule hyperplasia, severity 0, incidence: 9
Normal rats [3]
  blood glucose in fed conditions: did not affect; also recorded: not affected
Normal rats [3]; fed, not significant
  insulin resistance index HOMA-IR: slightly decreased; also recorded: decreased in a similar manner
[4]; OGTT day 26, AB14 20 mg/kg alone or + metformin
  decrease of insulin secretion (relative to T-60) at T30: no effect
[4]; OGTT day 26, AB14 60 mg/kg alone or + metformin, trend
  decrease of insulin secretion (relative to T-60) at T30: 19%
[4]; [6]
  plasma insulin and C-peptide levels 15 and 30 minutes after the glucose load: similar
  reduction in blood glucose AUC (OGTT): 7%
[4]; [7]
  plasma insulin and C-peptide levels 15 and 30 minutes after the glucose load: similar
  reduction in blood glucose AUC (OGTT): 11%
